# Data taken from the supplement of paper PMC8728848.
# The list shows a part of the results.
# B1: Epa1 (Candida glabrata), Q6FUW5_CANGA (protein)
# chain: MILNPALFLNKCVCIYTTLILLLLTNGGYATSSNDISLASKDPTTFPLGCSPDITTPKKGLSMELYSYDFRKKGSYPCWDAAYLDPNYPRTGYKSHRLLAKVDGVTGNINFYYHATKGCTPQLGHLPASYNYPKPLTMTNFTMLLYGYFRPKVTGFHTFTISADDLLFVNFGAGNAFDCCRRDSSADHFGNYQAYAIWGSKTAKDELTVHLDAGVYYPIRLFYNNREYDGALSFTFKTESNENTVSDFSEYFFSLDDTEEGCPGLISYDSSCASVKTSKIIGIDYHTETPNENLVPITKTIYHLGIPCTGTTTTPLCGSGFYDPLANKCVTINTSSTSSVTKTTSHTTSKEVSFHSSISSQKTLIPKSIPSPYGPIKSQSIPTEMETSSEISSSEYAFSDVISTPSHSPYTKKHSSLNSSSYTSTVIHSLTSYSISQGIFSTSLSEQNITSKSSTDKFSTATSMSNSITQSSIIISQSSTNNENYTTTSMHTSSDKISTETLNNSISTTTSILFSNSSTILKNNTTIISSDKDTHYHPVNPTIVCSTNKTEIICASITQPSISNSNNHWSSSVLRFNSTTVRSTLPSSAGSNETSINVPFSSSTESNASTSSTSTSNSKTVRSTLPSSAGSNETSINVPFSSSTESNTSTSSTSTSNSKTVRSTLPSSAGSNETSINVPFSSSTESNASTSSTSTSNSKTVRSTPFSSAGIIMTSLSQRNNKSASSYASSNSKCYNTADSCRKVHSTPSYLLTSSYTSEGVDYDCSLVSTKLKINDTNCLNNKHTTKSCLKTSVTTTIPTLEIKTARKSSSNTIGLHSYPTSSPNKSISSAPIIGYISSFKTIKTASPSYQTSDLTTITTITSLNNPGSTAVENTHESNDKSRKTSSNDISSKHSVIKETKDAVESSNKSHQTNTLKCSSIIIASSSHNSYESLGGTTLTLTLSKVYSPQNNDTLPFLEISEVNPSRTVLPESSKMMQYLTSTEERNKTARNTIATNIVSISTFHFEGEGNAIRMGYTQLLLMLIGIIVMNIGT
# Tests used:
# Assay in all cases: glycan array binding signal (z-score within array); higher = stronger binding
# Conditions in all cases: glycan notation: IUPAC condensed, linker removed
# [1] = target: Gal(b1-4)GlcNAc(b1-6)GalNAc
# How it was run: (§1)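 Columns mapping to the same glycan were averaged after glycan names were converted to IUPAC-condensed notation. The data come from 3228 arrays in the Consortium for Functional Glycomics database, limited to those with an available protein sequence. Binding is reported as a within-array Z-score averaged across arrays of one protein sequence and across linkers.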
# [2] = target: Gal(b1-4)GlcNAc(b1-6)[Gal(b1-3)]GalNAc
# How it was run: as §1
# [3] = target: Gal(b1-4)GlcNAc(b1-6)[Gal(b1-3)]GlcNAc
# How it was run: as §1
# [4] = target: Gal3S(b1-3)GalNAc
# How it was run: as §1
# [5] = target: Gal3S(b1-3)GlcNAc
# How it was run: as §1
# [6] = target: Gal3S(b1-3)[Fuc(a1-4)]GlcNAc
# How it was run: as §1
# [7] = target: Gal3S(b1-4)Glc
# How it was run: as §1
# [8] = target: Gal3S(b1-4)Glc6S
# How it was run: as §1
# [9] = target: Gal3S(b1-4)GlcNAc
# How it was run: as §1
# [10] = target: Gal3S(b1-4)GlcNAc6S
# How it was run: as §1
# [11] = target: Gal3S6S(b1-4)GlcNAc
# How it was run: as §1
# [12] = target: Gal3S6S(b1-4)GlcNAc6S
# How it was run: as §1
# [13] = target: Gal4S(b1-4)GlcNAc
# How it was run: as §1
# [14] = target: Gal4S6S(b1-4)GlcNAc
# How it was run: as §1
# [15] = target: Gal6S(b1-4)Glc
# How it was run: as §1
# [16] = target: Gal6S(b1-4)Glc6S
# How it was run: as §1
# [17] = target: Gal6S(b1-4)GlcNAc
# How it was run: as §1
# [18] = target: GalNAc(a1-3)Gal
# How it was run: as §1
# [19] = target: GalNAc(a1-3)GalNAc
# How it was run: as §1
# [20] = target: GalNAc(b1-3)Gal(a1-4)Gal(b1-4)GlcNAc
# How it was run: as §1
# [21] = target: GalNAc(b1-4)GlcNAc
# How it was run: as §1
# [22] = target: Glc(a1-4)Glc
# How it was run: as §1
# [23] = target: Glc(a1-6)Glc(a1-6)Glc
# How it was run: as §1
# [24] = target: Glc(b1-4)Glc
# How it was run: as §1
# [25] = target: Glc(b1-6)Glc
# How it was run: as §1
# [26] = target: GlcA(b1-3)Gal
# How it was run: as §1
# [27] = target: GlcA(b1-6)Gal
# How it was run: as §1
# [28] = target: GlcNAc(a1-3)Gal(b1-4)GlcNAc
# How it was run: as §1
# [29] = target: GlcNAc(a1-6)Gal(b1-4)GlcNAc
# How it was run: as §1
# [30] = target: GlcNAc(b1-2)Gal(b1-3)GlcNAc
# How it was run: as §1
# [31] = target: GlcNAc(b1-2)Man(a1-3)[GlcNAc(b1-2)Man(a1-6)]Man(b1-4)GlcNAc(b1-4)GlcNAc
# How it was run: as §1
# [32] = target: GlcNAc(b1-3)Gal
# How it was run: as §1
# [33] = target: GlcNAc(b1-3)Gal(b1-3)GalNAc
# How it was run: as §1
# [34] = target: GlcNAc(b1-3)Gal(b1-4)Glc
# How it was run: as §1
# [35] = target: GlcNAc(b1-3)Gal(b1-4)GlcNAc
# How it was run: as §1
# [36] = target: GlcNAc(b1-3)Gal(b1-4)GlcNAc(b1-3)Gal(b1-4)GlcNAc
# How it was run: as §1
# [37] = target: GlcNAc(b1-3)GalNAc
# How it was run: as §1
# [38] = target: GlcNAc(b1-3)[GlcNAc(b1-4)][GlcNAc(b1-6)]GlcNAc
# How it was run: as §1
# [39] = target: GlcNAc(b1-3)[GlcNAc(b1-6)]Gal(b1-4)GlcNAc
# How it was run: as §1
# [40] = target: GlcNAc(b1-3)[GlcNAc(b1-6)]GlcNAc
# How it was run: as §1
# [41] = target: GlcNAc(b1-4)Gal(b1-4)GlcNAc
# How it was run: as §1
# [42] = target: GlcNAc(b1-4)GlcNAc(b1-4)GlcNAc
# How it was run: as §1
# [43] = target: GlcNAc(b1-4)GlcNAc(b1-4)GlcNAc(b1-4)GlcNAc(b1-4)GlcNAc
# How it was run: as §1
# [44] = target: GlcNAc(b1-4)GlcNAc(b1-4)GlcNAc(b1-4)GlcNAc(b1-4)GlcNAc(b1-4)GlcNAc
# How it was run: as §1
# [45] = target: GlcNAc(b1-4)[GlcNAc(b1-6)]GalNAc
# How it was run: as §1
# [46] = target: GlcNAc(b1-6)Gal(b1-4)GlcNAc
# How it was run: as §1
# [47] = target: GlcNAc(b1-6)GalNAc
# How it was run: as §1
# [48] = target: Kdn(a2-3)Gal(b1-3)GlcNAc
# How it was run: as §1
# [49] = target: Kdn(a2-3)Gal(b1-4)GlcNAc
# How it was run: as §1
# [50] = target: Man(a1-2)Man(a1-2)Man(a1-3)Man
# How it was run: as §1
# [51] = target: Man(a1-2)Man(a1-2)Man(a1-3)[Man(a1-2)Man(a1-3)[Man(a1-2)Man(a1-6)]Man(a1-6)]Man(b1-4)GlcNAc(b1-4)GlcNAc
# How it was run: as §1
# [52] = target: Man(a1-2)Man(a1-2)Man(a1-3)[Man(a1-2)Man(a1-6)[Man(a1-3)]Man(a1-6)]Man(b1-4)GlcNAc(b1-4)GlcNAc
# How it was run: as §1
# [53] = target: Man(a1-2)Man(a1-2)Man(a1-6)[Man(a1-3)]Man
# How it was run: as §1
# [54] = target: Man(a1-2)Man(a1-3)Man
# How it was run: as §1
# [55] = target: Man(a1-2)Man(a1-3)[Man(a1-2)Man(a1-6)]Man
# How it was run: as §1
# [56] = target: Man(a1-2)Man(a1-3)[Man(a1-3)[Man(a1-6)]Man(a1-6)]Man(b1-4)GlcNAc(b1-4)GlcNAc
# How it was run: as §1
# [57] = target: Man(a1-2)Man(a1-3)[Man(a1-6)]Man(a1-6)[Man(a1-2)Man(a1-3)]Man(b1-4)GlcNAc(b1-4)GlcNAc
# How it was run: as §1
# [58] = target: Man(a1-3)[Man(a1-6)]Man
# How it was run: as §1
# [59] = target: Man(a1-3)[Man(a1-6)]Man(a1-6)[Man(a1-3)]Man(b1-4)GlcNAc(b1-4)GlcNAc
# How it was run: as §1
# [60] = target: Man(a1-3)[Man(a1-6)]Man(b1-4)GlcNAc(b1-4)GlcNAc
# How it was run: as §1
binder,measurement,setting,value
B1,glycan array binding signal (z-score),[1],2.06
same,glycan array binding signal (z-score),[2],1.83
same,glycan array binding signal (z-score),[3],2.48
same,glycan array binding signal (z-score),[4],-0.554
same,glycan array binding signal (z-score),[5],-0.553
same,glycan array binding signal (z-score),[6],-0.55
same,glycan array binding signal (z-score),[7],-0.552
same,glycan array binding signal (z-score),[8],-0.553
same,glycan array binding signal (z-score),[9],-0.553
same,glycan array binding signal (z-score),[10],-0.55
same,glycan array binding signal (z-score),[11],-0.526
same,glycan array binding signal (z-score),[12],-0.544
same,glycan array binding signal (z-score),[13],-0.551
same,glycan array binding signal (z-score),[14],-0.549
same,glycan array binding signal (z-score),[15],1.86
same,glycan array binding signal (z-score),[16],2.71
same,glycan array binding signal (z-score),[17],1.74
same,glycan array binding signal (z-score),[18],-0.545
same,glycan array binding signal (z-score),[19],-0.554
same,glycan array binding signal (z-score),[20],-0.558
same,glycan array binding signal (z-score),[21],-0.552
same,glycan array binding signal (z-score),[22],-0.551
same,glycan array binding signal (z-score),[23],-0.555
same,glycan array binding signal (z-score),[24],-0.554
same,glycan array binding signal (z-score),[25],-0.553
same,glycan array binding signal (z-score),[26],-0.555
same,glycan array binding signal (z-score),[27],1.46
same,glycan array binding signal (z-score),[28],-0.551
same,glycan array binding signal (z-score),[29],2.27
same,glycan array binding signal (z-score),[30],-0.549
same,glycan array binding signal (z-score),[31],-0.55
same,glycan array binding signal (z-score),[32],-0.544
same,glycan array binding signal (z-score),[33],-0.549
same,glycan array binding signal (z-score),[34],-0.555
same,glycan array binding signal (z-score),[35],-0.322
same,glycan array binding signal (z-score),[36],0.624
same,glycan array binding signal (z-score),[37],-0.556
same,glycan array binding signal (z-score),[38],-0.551
same,glycan array binding signal (z-score),[39],-0.555
same,glycan array binding signal (z-score),[40],-0.555
same,glycan array binding signal (z-score),[41],-0.554
same,glycan array binding signal (z-score),[42],-0.555
same,glycan array binding signal (z-score),[43],-0.554
same,glycan array binding signal (z-score),[44],-0.556
same,glycan array binding signal (z-score),[45],-0.556
same,glycan array binding signal (z-score),[46],1.77
same,glycan array binding signal (z-score),[47],-0.553
same,glycan array binding signal (z-score),[48],-0.549
same,glycan array binding signal (z-score),[49],-0.551
same,glycan array binding signal (z-score),[50],-0.552
same,glycan array binding signal (z-score),[51],-0.551
same,glycan array binding signal (z-score),[52],-0.551
same,glycan array binding signal (z-score),[53],-0.555
same,glycan array binding signal (z-score),[54],-0.545
same,glycan array binding signal (z-score),[55],-0.556
same,glycan array binding signal (z-score),[56],-0.551
same,glycan array binding signal (z-score),[57],-0.556
same,glycan array binding signal (z-score),[58],-0.546
same,glycan array binding signal (z-score),[59],-0.551
same,glycan array binding signal (z-score),[60],-0.554
